We go through 55 compounds from PubChem BioAssay AID1645887 (National Center for Advancing Translational Sciences (NCATS), 2021).

“And” between values parts separate entries of the source, which are not always exact repeats. Identical values can stand only once. In all, about 16,000 compounds went through this assay and about 40 (0.2%) were called active. About 1% were inconclusive and are not listed. The call rests on the fitted dose curve; in most records, active means well fitted activation curve with a large enough effect; inconclusive means small, poorly fitted or top-dose-only effect, or another doubt; inactive means no such curve, though single readings can be large or run the other way. The list shows a part of the results.
On the % scale 0 is the no-effect control and ±100 the full control effect.

Sequence of UniProt Q8WZA2 (Q8WZA2 whole entry, looked up): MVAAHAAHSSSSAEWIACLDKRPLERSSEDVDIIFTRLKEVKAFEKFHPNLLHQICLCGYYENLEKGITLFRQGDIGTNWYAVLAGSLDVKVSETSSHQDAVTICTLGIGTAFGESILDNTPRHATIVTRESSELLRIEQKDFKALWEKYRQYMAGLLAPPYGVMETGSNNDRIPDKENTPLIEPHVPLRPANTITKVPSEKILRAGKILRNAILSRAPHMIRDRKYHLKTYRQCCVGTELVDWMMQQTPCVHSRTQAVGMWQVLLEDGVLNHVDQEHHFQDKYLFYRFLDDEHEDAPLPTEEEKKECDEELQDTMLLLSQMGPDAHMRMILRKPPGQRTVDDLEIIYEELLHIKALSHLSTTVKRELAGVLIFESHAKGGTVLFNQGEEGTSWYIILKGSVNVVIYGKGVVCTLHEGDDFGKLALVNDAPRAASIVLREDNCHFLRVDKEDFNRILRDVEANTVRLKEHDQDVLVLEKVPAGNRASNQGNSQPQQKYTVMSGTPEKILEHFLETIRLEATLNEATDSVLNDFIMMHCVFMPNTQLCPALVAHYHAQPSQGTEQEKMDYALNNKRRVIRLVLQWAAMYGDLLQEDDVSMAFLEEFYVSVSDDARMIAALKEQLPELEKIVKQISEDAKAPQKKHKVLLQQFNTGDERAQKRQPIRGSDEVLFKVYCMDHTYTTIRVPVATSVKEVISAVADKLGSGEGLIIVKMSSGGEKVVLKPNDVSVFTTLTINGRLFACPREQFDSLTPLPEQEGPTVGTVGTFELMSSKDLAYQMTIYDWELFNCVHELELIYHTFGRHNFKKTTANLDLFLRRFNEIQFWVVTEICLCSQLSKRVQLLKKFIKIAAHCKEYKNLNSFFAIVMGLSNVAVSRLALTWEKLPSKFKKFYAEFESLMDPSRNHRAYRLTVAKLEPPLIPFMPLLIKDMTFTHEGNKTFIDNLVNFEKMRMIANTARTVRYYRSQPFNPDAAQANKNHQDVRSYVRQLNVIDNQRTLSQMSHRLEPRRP

The experiment addresses Rap guanine nucleotide exchange factor 4 (Homo sapiens) (UniProt Q8WZA2). Put plainly: Validation qHTS for agonist of cAMP-regulated guanine nucleotide exchange factor 4 (EPAC2).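 Further: exchange makes BODIPY-GDP fluorescence drop when released from Rap1B; series mostly up to about 150 µM.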 Conditions: EPAC2 Rap1B BODIPY-GDP exchange, fluorescence; activation: active compounds read high. A digest of the protocol:
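Signal normalized against 6.5 mM cAMP as agonist control. Mix of EPAC2 (100 nM), RAP1B-BODIPY-GDP (250 nM) and GDP (50 uM) was read kinetically at 480/540 nm, every 5 min over 30 min, after 5 min room-temperature incubation with compound.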
For orientation: qHTS replaces the single test concentration by a dilution series.
Turning to `CC(=O)OC/C=C(C)/C=C/C=C(C)/C=C/C1=C(C)CCCC1(C)C`, the activation is inactive: -2.77% and inactive: -41.8% and inactive: 0.24%.
Consider `O=C(c1cccc(F)c1F)N1CCOc2ccc(CN3CCN(Cc4ccccn4)CC3)cc2C1`, for which the activation was inactive: 2.67%.
On to `COc1ccccc1N(C)C`, for which the activation is inactive: -18.8%.
In the case of `O=c1c(-c2cccc(F)c2)nc2cncnc2n1-c1ccccc1`, the activation was inactive: 0.553%.
Then `COc1ccccc1N1CCN(c2nc(CNC(=O)c3ccccc3F)nc3ccccc23)CC1`, with inactive: -0.723%.
As for `CCCCCCCCCCCCCCCCCC(=O)O`, the figure is inactive: -5.89%; as for `O=C1NC(=O)/C(=C/c2ccc(-c3ccc(F)cc3O)o2)S1`, inactive: -58.7%; as for `Nc1ncnc2c1ncn2C1OC(CO)C(O)C1O` (stereo not given), inactive: -3.95% and inactive: -8.08%.
As for `O=C(Nc1ccccc1)N1CCC2(CC1)CCN(C(=O)c1cccc(F)c1)CC2`, the activation was inactive: -8.98%.
`CC(C)c1ccc2c(c1)CCC1C(C)(C(N)=O)CCCC21C` (stereo not given): the activation is inactive: -20.1%.
As for `CCCn1c(=O)c2[nH]c(-c3ccccc3)nc2n(CCC)c1=O`, the figure is inactive: 10.1% and inactive: 5.28%; as for `CCC(c1ccc(O)cc1)C(CC)c1ccc(O)cc1` (stereo not given), inactive: 0.614%; as for `NC1(c2ccc(-c3nc4ccn5c(=O)[nH]nc5c4cc3-c3ccccc3)cc2)CCC1`, inactive: -8.43%.
As for `COc1cc(OC)c2c(=O)c(OC)c(-c3ccc(OC)c(OC)c3)oc2c1`, the figure is inactive: -10.1%; as for `CN1C2CC(OC(=O)C(CO)c3ccccc3)C[C@@H]1[C@H]1OC21` (stereo not given in full), inactive: -11.6%; as for `COc1ccccc1CNc1ncncc1-c1ccccc1OC`, inactive: -20.4%.
As for `O=C(NCc1nnc2n1CCN(Cc1ccnc3ccccc13)CC2)c1cccc(F)c1`, the figure is inactive: -24.5%.
As to `Cc1ccccc1/C=C/C1=NCCN1`, the activation was inactive: -35.9%.
With `CCCCCCC(=O)O[C@H]1CC[C@H]2[C@@H]3CCc4cc(O)ccc4[C@H]3CC[C@]12C`, the activation was inactive: -17.6%.
In the case of `O=C(Nc1cccc(F)c1)N1CCC2(CC1)CCN(C(=O)c1ccncc1)CC2`, the activation was inactive: -13.9%.
Then `CNc1ncnc2ccc(-c3ccc4c(c3)OCO4)cc12`, with inactive: -11.8%; and `COc1ccc(CN2CCCC(n3cc(C(=O)N4CCCCC4)nn3)C2)c(OC)c1C` (stereo not given), with inactive: -3.21%.
`CC(NC(=O)C1CCOCC1)c1nnc2n1CCN(Cc1ccc3ccccc3c1)CC2` (stereo not given): the activation was inactive: -12.1%.
As to `CCC1(C2CCN(Cc3c(C)[nH]c4ccccc34)CC2)NC(=O)N(Cc2ccc3c(c2)OCO3)C1=O` (stereo not given), the activation was inactive: -6.63%.
As to `COc1ccccc1-c1ccnc(-n2ncc(C(=O)NCCc3cccnc3)c2C)n1`, the activation is inactive: 3.96%.
In the case of `CC(C)Oc1cccc(-n2c(CCc3c[nH]c4ccc(Br)cc34)nc3ccccc3c2=O)c1`, the activation is inactive: 7.36%.
For `Cc1cccc(-c2[nH]c(C(C)(C)C)nc2-c2ccc3nccnc3c2)n1`, the activation is inactive: -37.6%.
Then `COc1ccc(O)c(CN2CCC3(CCC(CNC(=O)c4ccccc4)O3)CC2)c1` (stereo not given), with inactive: -3.96%.
As for `CC[C@@]1(O)C(=O)OCc2c1cc1n(c2=O)Cc2cc3cc(O)ccc3nc2-1`, the figure is inactive: -2.34% and inactive: 12.4%.
Then `COCCn1c(=O)c(-c2cccs2)nc2cnc(Oc3ccccc3)nc21`, with inactive: -1.42%; and `COc1ccc(CCN(C)CCc2ccc(OC)c(OC)c2)cc1OC`, with inactive: -10.3% [middle of 4 runs]; and `CC1(CN2CCC(n3c(=O)[nH]c4ccccc43)CC2)OCc2ccccc2-n2cccc21` (stereo not given), with inactive: -4.89%.
In the case of `CC(CCc1ccc(O)cc1)N1CCOc2c(O)cc(-c3nc4ccccc4s3)cc2C1` (stereo not given), the activation is inactive: -4.76%.
Turning to `O=c1c(-c2ccccc2)nc2cnc(N3CCNCC3)nc2n1Cc1ccc(F)cc1`, the activation was inactive: -7.85%.
As for `COc1ccc(Oc2ncc3nc(-c4ccc(OC)cc4)c(=O)n(C)c3n2)cc1`, the figure is inactive: -6.44%.
For `Cc1cc(C)n(CC(=O)N2CCC(n3c(C(C)C)nc4cccnc43)CC2)n1`, the activation was inactive: -2.74%.
As to `Cc1noc(C)c1C(=O)N1CCC2(CCN(Cc3nccs3)CC2)CC1`, the activation was inactive: -31%.
For `CN1CCN(CCCN2c3ccccc3Sc3ccc(S(=O)(=O)N(C)C)cc32)CC1`, the activation was inactive: -14.5%.
With `COCc1ccc(CN2CCOc3ccc(C4=CCCCC4)cc3C2)o1`, the activation is inactive: -26%.
Then `CCCC[P+](CCCC)(CCCC)Cc1ccc(NC(=O)[C@@H](Cc2ccc3ccccc3c2)NC(=NC2CCCCC2)NC2CCCCC2)cc1`, with inactive: -4.51%.
With `Cc1nc2ccccc2nc1CN1CCOc2ccc(CN3CCc4sccc4C3)cc2C1`, the activation is inactive: -7.8%.
As for `CS(=O)(=O)Nc1cccc(-c2nc(NC3CC3)c3ccccc3n2)c1`, the figure is inactive: -4.91%; as for `CCCCCCCCC#CCC#CCC#CCCCC(=O)O`, inactive: -4.17%.
`Cc1c(C(=O)NCC2(c3ccccc3)CCOCC2)cnn1-c1nccc(-c2ccco2)n1`: the activation was inactive: -0.973%.
Then `O=c1cc(-c2cc(O)c(O)c(O)c2)oc2cc(O)cc(O)c12`, with inactive: -2.87%; and `C[C@@H]1CC(=O)NN=C1c1ccc(NN=C(C#N)C#N)cc1`, with inactive: 0.0484%; and `CCCCC[C@H]1CN(Cc2ccccc2)C(=O)[C@@H]1CC(=O)NCc1ccccc1`, with inactive: -19.8%.
Then `COc1ccc(-c2nc(C(=O)N3CCN(C)CC3)sc2-c2ccc(OC)cc2)cc1`, with inactive: -30.8%; and `CC(=O)Nc1ccc(SC[C@H](Cc2ccccc2)N2CC[C@@H](N)CCC2=O)cc1`, with inactive: -6.32%.
Then `COc1c(C=O)c(=O)[nH]c2c(OC)cccc12`, with inactive: -7.45%; and `CC(=O)OCC(=O)[C@@]1(O)CCC2C3CCC4=CC(=O)CC[C@]4(C)C3C(O)C[C@]21C` (stereo not given in full), with inactive: 5.38%.
As for `Cc1noc(C)c1-c1cncnc1Nc1ccccc1`, the activation is inactive: -6.96%.
Regarding `COc1ccc(C(=O)N2CCC3(CCN(Cc4cc(C(F)(F)F)cc(C(F)(F)F)c4)CC3)CC2)cc1`, the activation is inactive: -9.28%.
As for `Cc1ccccc1-c1cc(N(C)Cc2ccco2)ncn1`, the figure is inactive: -4.03%.
Turning to `NC(=O)CC[C@@H]1NC(=O)[C@H](Cc2ccccc2)NC(=O)[C@H](Cc2ccc(O)cc2)NC(=O)[C@@H](N)CSSC[C@@H](C(=O)N2CCC[C@H]2C(=O)N[C@@H](CCCN=C(N)N)C(=O)NCC(N)=O)NC(=O)[C@H](CC(N)=O)NC1=O`, the activation is inactive: -23.4% and inactive: 1.61%.
